Assay results taken from PubChem BioAssay AID1240 (Sanford-Burnham Center for Chemical Genomics, 2008).
The whole screen tested about 50,000 compounds, of which about 800 (1.6%) showed an effect of 50% or more. This is one part of the list.

target: Bcl-2-like protein 10 (Homo sapiens) (UniProt Q9HD36); test: Phenotype converters, Bcl-B/TR3 peptide binding displacement, primary biochemical FP (AID 1240); details: GST-Bcl-B / FITC-TR3 peptide fluorescence polarization; stronger effect = higher value; compound at 3.75 mg/L;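 further: 0% = Bcl-B with tracer peptide and DMSO and 100% = tracer peptide lacking Bcl-B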
Chain of UniProt Q9HD36 (Q9HD36 whole entry, looked up): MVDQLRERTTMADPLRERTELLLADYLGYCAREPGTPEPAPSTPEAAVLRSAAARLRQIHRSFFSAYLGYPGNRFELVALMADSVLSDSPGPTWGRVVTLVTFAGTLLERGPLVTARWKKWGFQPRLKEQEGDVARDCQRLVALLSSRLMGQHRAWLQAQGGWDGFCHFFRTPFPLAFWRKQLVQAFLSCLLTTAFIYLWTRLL

Point of comparison: Cn1c(-c2ccc(S(=O)(=O)O)s2)nc2ccccc21, displacement 5.7%. Against it:
- Clc1cccc(OCCCN2CCCCC2)c1Cl — higher, 8.2%
- O=C1/C(=C\c2ccc(F)cc2)SC(=S)N1CN1CCCCC1 — lower, 4.5%
- CCOc1ccc(NC(=O)/C(C#N)=C\c2c(C)[nH]c3ccccc23)cc1 — lower, -1.7%
- Cc1ccc(OCC(=O)Nc2ccccc2CO)c(C)c1 — lower, 2.5%
- Cc1cc(-c2ccc(C(C)C)cc2)c(C#N)c(N)n1 — lower, -39.4%
- CC1(C)CC(=O)C2=C(C1)NC1=C(C(=O)CC(C)(C)C1)C2c1ccc2c(c1)OCO2 — higher, 10.4%
- O=C1NC(c2ccccc2Cl)Nc2c1sc(=S)n2-c1ccccc1 (centres undefined) — higher, 15.5%
- CCCC1CCc2c(sc(NC(=O)C3CC3c3ccccc3)c2C(N)=O)C1 (centres undefined) — lower, -0.6%
- COc1ccc(CC(=O)Nc2sc3c(c2C#N)CCCC3)cc1 — lower, -12.7%
- CCC(=O)Oc1ccc2c(C(F)(F)F)cc(=O)oc2c1 — lower, 4.6%
- COc1ccc(S(=O)(=O)n2cnc(C)c2)cc1OC — higher, 13.8%
- c1ccc2nc3c(cc(N4CCOCC4)c4ccccc43)nc2c1 — higher, 147%
- O=C1c2cc3ccccc3c(-c3ccccc3)c2C(=O)N1CCO — lower, 4.9%
- CCOC(=O)C1=C(O)/C(=C/c2ccccc2)SC1=Nc1ccc([N+](=O)[O-])cc1 — lower, -0.9%
- CCCOc1ccc(/C=N/NS(=O)(=O)c2ccc(OC)cc2)cc1OC — lower, 4.4%
- COc1cc(N/N=C/c2ccc(N(C)C)cc2)ncn1 — lower, -11.6%
- O=C(CCCN1C(=O)/C(=C\c2cccs2)SC1=S)Nc1ccccn1 — higher, 13.2%
- COc1ccc(C(=O)/C=C/Nc2ccc(S(=O)(=O)Nc3nc(C)cc(C)n3)cc2)c(OC)c1 — lower, 5.4%
- COC(=O)c1ccccc1NC(=O)c1ccc(C)cc1 — higher, 16.6%
- CSc1nc2c(c(=O)n1C1CCCC1)C1(CCCCC1)Cc1ccccc1-2 — lower, 2.2%
- CCN(CC)C(=O)CCN1C(=O)/C(=C2\SC(=S)N(CCC(=O)N(CC)CC)C2=O)SC1=S — higher, 13.2%
- CCOc1ccc(C(=O)Nc2ccc3oc(-c4ccccc4C)nc3c2)cc1 — lower, -9.2%
- COc1cc2ccccc2cc1C(=O)Nc1cccnc1 — higher, 6.8%
- O=C(/C=C/c1ccc(F)cc1)Nc1cccc(C(F)(F)F)c1 — higher, 6.5%
- Cc1nccn1S(=O)(=O)c1cc(Cl)ccc1Cl — lower, 3.6%
- Cc1ccc(N2CC(C(=O)Nc3ccc(Cl)cc3)CC2=O)cc1 (centres undefined) — higher, 9.9%
- O=C(CC12CC3CC(C1)CC(CC(=O)N1CCOCC1)(C3)C2)N1CCOCC1 — lower, -16.3%
- CCCc1nnc(NC(=O)CNc2ccc(F)cc2)s1 — higher, 14.1%
- Cc1ccc2c(c1)NC(c1cccc([N+](=O)[O-])c1)C1=C(CC(C)(C)CC1=O)N2 (centres undefined) — higher, 7.5%
- N#Cc1ccc(C2N(Cc3ccccc3)CCN2Cc2ccccc2)cc1 — higher, 5.8%
- COCCN1C(=O)/C(=C\c2ccccc2[N+](=O)[O-])C(C(=O)OC)=C1C — higher, 17.6%
- COCCN1C(=O)C(=O)/C(=C(/O)c2ccccc2)C1c1ccc(C(C)C)cc1 (centres undefined) — higher, 34.3%
- Cc1c(C(=O)Nc2ccncc2)cccc1[N+](=O)[O-] — lower, -2.3%
- C=CCN1C(=O)/C(=C2\SC(=S)N(Cc3ccccc3)C2=O)c2ccccc21 — lower, 2.1%
- N#C/C(=C/Nc1ccc(F)cc1)c1nc(-c2ccccc2)cs1 — lower, -13%
- Cc1ccc(OCCSc2nc3ccccc3[nH]2)cc1 — lower, 5.2%
- COc1ccc(COC(=O)NNC(=O)c2cccc(Cl)c2)cc1 — lower, 2.2%
- Cc1ccc2c(nc3s/c(=C\c4ccc(-c5cccc(C(F)(F)F)c5)o4)c(=O)n32)c1C — lower, -3.1%
- Oc1c(N=Nc2ccc(I)cc2)sc2ccccc12 — lower, -5.1%
- O=C(Nc1nc2ccc(Br)cc2s1)c1cccc(Cl)c1 — lower, 1.9%
- Cc1cc(NC(=O)c2cc(-c3ccccc3)nc3ccccc23)no1 — lower, 3.8%
- COc1ccc(-c2cn3ccc(C)cc3n2)cc1Br — higher, 14.2%
- COc1ccc(S(=O)(=O)Nc2ccc(F)cc2F)cc1 — lower, 5.1%
- Nc1n[nH]c(N)c1N=Nc1cccc(F)c1 — lower, -5.1%
- O=C(NCCC(c1ccccc1)c1ccccc1)C(F)(F)F — lower, -1.5%
- O=[N+]([O-])c1cccc(Nc2ccccc2)c1 — lower, -1.5%
- CC(C)c1ccc(NC(=O)CC2SC(N)=NC2=O)cc1 (centres undefined) — higher, 8.7%
- CC(C)(C)C(=O)Nc1ccc(N2CCOCC2)cc1 — lower, 5.2%
- COc1cc(NC(=O)c2cccc(Br)c2)cc(OC)c1 — lower, -1.6%
- C/C(O)=C/C(N)=NC(=O)c1ccccc1 — higher, 18.2%
- COC(=O)CP(=O)(c1ccccc1)c1ccccc1 — lower, 1.6%
- COC(C)(C)c1cc(-c2cccc3ccccc23)nc(N)n1 — lower, 0%
- COc1ccc(Cl)cc1C(=O)Nc1cccc(F)c1 — lower, -4.4%
- Cc1ccc([N+](=O)[O-])cc1S(=O)(=O)N1CCOCC1 — lower, 5.1%
- O=C(Nc1ccccc1)N1CCN(c2ccccc2)CC1 — lower, -1.6%
- CCOc1ccc(NC(=O)C2COc3ccccc3O2)cc1 (centres undefined) — lower, 4%
- O=C1/C(=C\Nc2cc(Cl)ccc2O)CCc2ccccc21 — higher, 85.9%
- Cc1ccccc1NC(=S)NC(=O)/C=C/c1ccc(F)cc1 — lower, -5%
- O=C(NCCCO)C(=O)NCCc1ccccc1 — higher, 15.5%
- COc1ccc(Cl)cc1NC(=O)c1ccc(Cl)c(Cl)c1 — lower, -3.3%
- Cc1ccc([N+](=O)[O-])cc1NC(=S)NC(=O)c1ccccc1Cl — higher, 15.9%
- CC1(C)CC(=O)c2sc(NC(=O)c3ccc(C(=O)c4ccccc4)cc3)nc2C1 — lower, -20.5%
- Cc1cccc(C(=O)Nc2cccc(C(N)=O)c2)c1 — lower, -11.6%
- CC(=O)Nc1ccccc1NC(=O)COc1ccc2ccccc2c1 — lower, -9.4%
- CCNc1ncnc2c1oc1ccccc12 — lower, 5.3%
- Cc1cccc(C=Nc2ccc3c(c2)oc2ccccc23)c1O — lower, -0.6%
- Cc1ccc(S(=O)(=O)N(Cc2ccccc2)c2ccccc2C(=O)NC2CCCC2)cc1 — lower, -0.9%
- Cc1ccc(NC(=O)c2cc3ccccc3o2)c([N+](=O)[O-])c1 — lower, 4.1%
- O=C(N(c1ccc(Cl)cc1)C1C=CS(=O)(=O)C1)C(F)(F)F (centres undefined) — higher, 12.8%
- Cc1ccc(-n2[nH]c(C)c(C=O)c2=O)cc1 — higher, 16.7%
- CCCC(=O)Nc1nnc(COc2ccccc2)s1 — lower, 3.9%
- O=C(O)CCC(NC(=O)c1cncc(Br)c1)C(=O)O (centres undefined) — lower, 1.8%
- NC(=O)COc1ccc(/C=C2\C(=O)NC(=O)N(Cc3ccccc3)C2=O)cc1 — higher, 23.2%
- CS(=O)(=O)N(CC(=O)N1CCCC1)c1ccc(Cl)cc1 — higher, 10.2%
- COC(=O)C1=CN(CCc2ccccc2)C=C(C(=O)OC)C1c1ccc2c(c1)OCO2 — lower, 3.5%
- Cc1ccnc(NS(=O)(=O)c2ccc(N)cc2)c1 — lower, -8.1%
- Cc1cccc(C(=O)Nc2cccc(NC(=O)COc3ccccc3Cl)c2)c1 — higher, 10.7%
- COc1ccc(Oc2coc3cc(OC(=O)c4ccco4)ccc3c2=O)cc1 — higher, 15.5%
- N/C(=N\OC(=O)c1ccc(F)cc1)c1ccccc1 — lower, -11.3%
- O=C1/C(=C\c2ccco2)CC2CC1C/C(=C/c1ccco1)C2=O — higher, 9.5%
- Cc1nnc(Nc2ccc(C(=O)Nc3c(Cl)cccc3Cl)cc2)c2ccccc12 — lower, -3.9%
- CS(=O)(=O)NCCCNc1ccc(C(F)(F)F)cc1[N+](=O)[O-] — lower, -0.8%
- O=C(Nc1cc(C(F)(F)F)ccc1N1CCOCC1)Nc1cccc2ccccc12 — lower, 3.4%
- COc1cc(/C=N/NC(=O)c2ccncc2)ccc1OC(=O)c1cccs1 — lower, -2.4%
- O=C(Nc1ccc(O)c(-c2nc3ccccc3s2)c1)c1cc([N+](=O)[O-])ccc1Cl — lower, 1.6%
- Fc1c(F)c(N2CCOCC2)c(F)c(F)c1-c1c(F)c(F)c(N2CCOCC2)c(F)c1F — lower, -2.3%
- CC(O)c1nc2ccccc2n1Cc1ccc2ccccc2c1 (centres undefined) — lower, -6.3%
- COc1ccc(OC)c(NC(=O)C2CC(C)=C(C)CC2C(=O)O)c1 (centres undefined) — higher, 18.1%
- O=C(N/N=C/c1ccccc1)c1cc(Br)ccc1O — higher, 7.4%
- COC(=O)c1ccc(NC(=S)NC(=O)/C=C/c2ccc(Br)cc2)cc1 — higher, 13.2%
- NC(=O)c1ccccc1N=Cc1cccc([N+](=O)[O-])c1 — lower, -4.7%
- Cc1ccccc1C1Nc2ccccc2NC2=C1C(=O)CC(c1ccccc1)C2 (centres undefined) — lower, -7.1%
- CC(=O)Nc1ccc2oc(-c3ccc4nc(NC(C)=O)sc4c3)nc2c1 — lower, -4.1%
- O=C(N/N=C\c1ccc([N+](=O)[O-])o1)c1nc(-c2ccccc2)cc(-c2ccccc2)n1 — higher, 5.8%
- CCOC(=O)c1c(-c2ccccc2)oc2cc(Br)c(OCC(N)=O)cc12 — lower, 3.3%
- O=C(NN1C(=O)C2C(C1=O)C1C=CC2C12CC2)c1ccncc1 (centres undefined) — higher, 16.7%
- CCCn1c(C(O)c2ccc(C)cc2)nc2ccccc21 (centres undefined) — lower, -9.6%
- O=C(NC(=S)N1CCCCC1)c1ccc(Br)cc1 — lower, -3.1%
- Cc1cc(-c2ccc(/C=C3\Sc4ccccc4C3=O)o2)cc([N+](=O)[O-])c1C — lower, -32.2%
- O=C(Cc1ccccc1Cl)c1ccc(O)cc1O — lower, -6.4%
- O=C1/C(=C/c2ccc(Br)o2)Sc2ccccc21 — higher, 92.7%
- COc1cccc(C2CC(=O)Nc3c2cc(Br)c2ccccc32)c1OC (centres undefined) — lower, -3.9%
- O=C(Nc1cccc2nsnc12)c1cccc(Br)c1 — lower, 5.6%
- O=C1/C(=C\c2cccc(Br)c2)SC(=S)N1CN1CCCCC1 — higher, 10.3%
- CC(C)CC(=O)N1c2ccccc2NC2=C(C(=O)CC(C)(C)C2)C1c1ccco1 (centres undefined) — lower, -11.9%
- O=C1C(=O)N(c2cccnc2)C(c2ccc(O)cc2)/C1=C(\O)c1ccc(Cl)cc1 (centres undefined) — lower, -14.2%
- CCOC(=O)C1=C(C)NC(=S)NC1c1cc(OC)c(OC)c(OC)c1 (centres undefined) — lower, -5%
- O=C(N/N=C/c1ccc(/C=N/NC(=O)c2cccc(Cl)c2)cc1)c1cccc(Cl)c1 — lower, -6.5%
- Cc1cccc(C)c1OCCOCCN1CCCC1 — lower, 2.8%
- CCC(C)(C)C1CCc2c(sc(NC(=O)c3cccnc3)c2C(N)=O)C1 (centres undefined) — lower, -2.3%
- O=C(Nc1ccccc1)Nc1nnc(-c2ccccc2I)s1 — lower, 3.4%
- Cc1ccc(C)c(S(=O)(=O)Nc2cc(Br)c(O)c3ccccc23)c1 — higher, 19.6%
- CCC(C)NC(=O)NS(=O)(=O)c1ccccc1Cl (centres undefined) — higher, 16.9%
